According to the supplement of paper PMC7238544:
Counter-ions that a name gives are not always drawn. ± gives the standard deviation of the averaged measurements. Some of the results follow.

Legend:
Settings in all cases: priming compound concentration 100 µM
hAMSC donor 1 [1] = test: Hoechst total cell count ratio vs vehicle control; higher = more cells (less toxicity)
hAMSC donor 2 [2] = test: as above
hAMSC donor 1 [3] = test: transgenic luciferase activity (RLU/mg protein) fold change vs vehicle control (ratio); higher = more transgene expression
hAMSC donor 2 [4] = test: as above
hAMSC donor 1 [5] = test: transfection efficiency (EGFP+ cells / Hoechst count) fold change vs vehicle control (ratio); hAMSC are human adipose-derived mesenchymal stem cells given an EGFP-luciferase plasmid by lipofection; higher = enhanced transfection
hAMSC donor 2 [6] = test: as above
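Wherever Hoechst total cell count ratio vs vehicle control is given: compound added 30 min before Lipofectamine 3000 lipoplex delivery, triplicate-well means expressed against DMSO vehicle control wells of the same 96-well plate.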
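Wherever transfection efficiency (EGFP+ cells / Hoechst count) fold change vs vehicle control is given: compounds added 30 min before Lipofectamine 3000 lipoplex transfection, triplicate means relative to DMSO vehicle wells on the same plate, luciferase RLU normalized to BCA total protein.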
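Wherever transgenic luciferase activity (RLU/mg protein) fold change vs vehicle control is given: compounds in DMSO added 30 min before Lipofectamine 3000 transfection of pEGFP-Luc in 96-well plates, values are means of triplicate wells over DMSO vehicle wells on the same plate.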

Cc1ccc(NC(=O)c2ccc(CN3CCN(C)CC3)cc2)cc1Nc1nccc(-c2cccnc2)n1 [Imatinib mesylate]
Hoechst total cell count ratio (hAMSC donor 1 [1]): 0.564 ± 0.025 | Hoechst total cell count ratio (hAMSC donor 2 [2]): 0.538 ± 0.08 | transgenic luciferase activity (hAMSC donor 1 [3]): 0.359 ± 0.16 | transgenic luciferase activity (hAMSC donor 2 [4]): 0.61 ± 0.05 | transfection efficiency (hAMSC donor 1 [5]): 0.803 ± 0.18 | transfection efficiency (hAMSC donor 2 [6]): 0.782 ± 0.094

COC(=O)C1=C(C)NC(C)=C(C(=O)OC2CCCN(Cc3ccccc3)C2)C1c1cccc([N+](=O)[O-])c1 (centres undefined) [Benidipine hydrochloride]
Hoechst total cell count ratio (hAMSC donor 1 [1]): 0.669 ± 0.1 | Hoechst total cell count ratio (hAMSC donor 2 [2]): 0.502 ± 0.14 | transgenic luciferase activity (hAMSC donor 1 [3]): 0.259 ± 0.13 | transgenic luciferase activity (hAMSC donor 2 [4]): 0.488 ± 0.033 | transfection efficiency (hAMSC donor 1 [5]): 0.665 ± 0.088 | transfection efficiency (hAMSC donor 2 [6]): 0.875 ± 0.32

C[C@]12CCC(=O)C=C1CC[C@@H]1[C@@H]2[C@@H](O)C[C@@]2(C)[C@H]1CC[C@]2(O)C(=O)COC(=O)CCC(=O)O [Hydrocortisone hemisuccinate]
Hoechst total cell count ratio (hAMSC donor 1 [1]): 1.43 ± 0.15 | Hoechst total cell count ratio (hAMSC donor 2 [2]): 0.973 ± 0.04 | transgenic luciferase activity (hAMSC donor 1 [3]): 10.8 ± 2.7 | transgenic luciferase activity (hAMSC donor 2 [4]): 1.63 ± 0.17 | transfection efficiency (hAMSC donor 1 [5]): 2.12 ± 0.32 | transfection efficiency (hAMSC donor 2 [6]): 1.26 ± 0.22

COc1cc(C)c(/C=C/C(C)=C/C=C/C(C)=C/C(=O)O)c(C)c1C [Acitretin]
Hoechst total cell count ratio (hAMSC donor 1 [1]): 1.71 ± 0.29 | Hoechst total cell count ratio (hAMSC donor 2 [2]): 1.95 ± 0.45 | transgenic luciferase activity (hAMSC donor 1 [3]): 0.158 ± 0.051 | transgenic luciferase activity (hAMSC donor 2 [4]): 0.333 ± 0.04 | transfection efficiency (hAMSC donor 1 [5]): 0.174 ± 0.042 | transfection efficiency (hAMSC donor 2 [6]): 0.372 ± 0.12

CCCN(CCC)S(=O)(=O)c1ccc(C(=O)O)cc1 [Probenecid]
Hoechst total cell count ratio (hAMSC donor 1 [1]): 1.03 ± 0.073 | Hoechst total cell count ratio (hAMSC donor 2 [2]): 1.38 ± 0.18 | transgenic luciferase activity (hAMSC donor 1 [3]): 0.37 ± 0.25 | transgenic luciferase activity (hAMSC donor 2 [4]): 1.05 ± 0.12 | transfection efficiency (hAMSC donor 1 [5]): 1.23 ± 0.44 | transfection efficiency (hAMSC donor 2 [6]): 0.817 ± 0.14

O=C1N[C@H](C(=O)O)CS1 [Procysteine]
Hoechst total cell count ratio (hAMSC donor 1 [1]): 1.46 ± 0.13 | Hoechst total cell count ratio (hAMSC donor 2 [2]): 1.11 ± 0.079 | transgenic luciferase activity (hAMSC donor 1 [3]): 3.54 ± 5 | transgenic luciferase activity (hAMSC donor 2 [4]): 0.525 ± 0.093 | transfection efficiency (hAMSC donor 1 [5]): 1.24 ± 0.15 | transfection efficiency (hAMSC donor 2 [6]): 1.07 ± 0.18

C#C[C@]1(O)CC[C@H]2[C@@H]3CCC4=CC(=O)CC[C@@H]4[C@H]3CC[C@@]21CC [Levonorgestrel]
Hoechst total cell count ratio (hAMSC donor 1 [1]): 1.13 ± 0.053 | Hoechst total cell count ratio (hAMSC donor 2 [2]): 1.48 ± 0.29 | transgenic luciferase activity (hAMSC donor 1 [3]): 1.03 ± 0.56 | transgenic luciferase activity (hAMSC donor 2 [4]): 0.662 ± 0.26 | transfection efficiency (hAMSC donor 1 [5]): 1.01 ± 0.24 | transfection efficiency (hAMSC donor 2 [6]): 1.4 ± 0.5

Cc1ccc(O)c([C@H](CCN(C(C)C)C(C)C)c2ccccc2)c1 [Tolterodine tartrate]
Hoechst total cell count ratio (hAMSC donor 1 [1]): 1.26 ± 0.19 | Hoechst total cell count ratio (hAMSC donor 2 [2]): 0.938 ± 0.061 | transgenic luciferase activity (hAMSC donor 1 [3]): 0.552 ± 0.23 | transgenic luciferase activity (hAMSC donor 2 [4]): 0.782 ± 0.57 | transfection efficiency (hAMSC donor 1 [5]): 1.12 ± 0.21 | transfection efficiency (hAMSC donor 2 [6]): 1.07 ± 0.029

CN1CCN(CC/C=C2/c3ccccc3Sc3ccc(S(=O)(=O)N(C)C)cc32)CC1 [Thiothixene]
Hoechst total cell count ratio (hAMSC donor 1 [1]): 0.085 ± 0.057 | Hoechst total cell count ratio (hAMSC donor 2 [2]): 0.156 ± 0.089 | transgenic luciferase activity (hAMSC donor 1 [3]): 0.00946 ± 0.0066 | transgenic luciferase activity (hAMSC donor 2 [4]): 0.00058 ± 6.1e-05 | transfection efficiency (hAMSC donor 1 [5]): 0.355 ± 0.35 | transfection efficiency (hAMSC donor 2 [6]): 0.0803 ± 0.044

CCC[C@@H]1C[C@@H](C(=O)N[C@@H]([C@H]2O[C@H](SC)[C@H](O)[C@@H](O)[C@H]2O)[C@@H](C)O)N(C)C1 [Lincomycin hydrochloride]
Hoechst total cell count ratio (hAMSC donor 1 [1]): 1.07 ± 0.15 | Hoechst total cell count ratio (hAMSC donor 2 [2]): 0.915 ± 0.062 | transgenic luciferase activity (hAMSC donor 1 [3]): 1.38 ± 0.58 | transgenic luciferase activity (hAMSC donor 2 [4]): 0.383 ± 0.17 | transfection efficiency (hAMSC donor 1 [5]): 0.887 ± 0.072 | transfection efficiency (hAMSC donor 2 [6]): 1.47 ± 0.2

N[C@@H](C(=O)N[C@@H]1C(=O)N2C(C(=O)O)=C(Cl)CS[C@H]12)c1ccccc1 [Cefaclor]
Hoechst total cell count ratio (hAMSC donor 1 [1]): 1.27 ± 0.29 | Hoechst total cell count ratio (hAMSC donor 2 [2]): 1.51 ± 0.33 | transgenic luciferase activity (hAMSC donor 1 [3]): 1.08 ± 0.35 | transgenic luciferase activity (hAMSC donor 2 [4]): 0.531 ± 0.13 | transfection efficiency (hAMSC donor 1 [5]): 0.727 ± 0.14 | transfection efficiency (hAMSC donor 2 [6]): 0.82 ± 0.085

NNC(=O)c1ccncc1 [Isoniazid]
Hoechst total cell count ratio (hAMSC donor 1 [1]): 1.3 ± 0.14 | Hoechst total cell count ratio (hAMSC donor 2 [2]): 1.44 ± 0.08 | transgenic luciferase activity (hAMSC donor 1 [3]): 1.38 ± 0.31 | transgenic luciferase activity (hAMSC donor 2 [4]): 0.67 ± 0.1 | transfection efficiency (hAMSC donor 1 [5]): 1.02 ± 0.14 | transfection efficiency (hAMSC donor 2 [6]): 1.24 ± 0.22

COc1cc(/C=C/c2ccc(O)cc2)cc(OC)c1 [Pterostilbene]
Hoechst total cell count ratio (hAMSC donor 1 [1]): 0.93 ± 0.015 | Hoechst total cell count ratio (hAMSC donor 2 [2]): 0.574 ± 0.14 | transgenic luciferase activity (hAMSC donor 1 [3]): 0.982 ± 0.14 | transgenic luciferase activity (hAMSC donor 2 [4]): 2.23 ± 0.091 | transfection efficiency (hAMSC donor 1 [5]): 2.68 ± 0.68 | transfection efficiency (hAMSC donor 2 [6]): 1.6 ± 0.29

CC(C)NCC(O)c1ccc(O)c(O)c1 (centres undefined) [Isoproterenol hydrochloride]
Hoechst total cell count ratio (hAMSC donor 1 [1]): 1.21 ± 0.19 | Hoechst total cell count ratio (hAMSC donor 2 [2]): 1.26 ± 0.11 | transgenic luciferase activity (hAMSC donor 1 [3]): 0.539 ± 0.32 | transgenic luciferase activity (hAMSC donor 2 [4]): 0.793 ± 0.16 | transfection efficiency (hAMSC donor 1 [5]): 1.23 ± 0.25 | transfection efficiency (hAMSC donor 2 [6]): 1.04 ± 0.25

COc1ccccc1OCC(O)COC(N)=O (centres undefined) [Methocarbamol]
Hoechst total cell count ratio (hAMSC donor 1 [1]): 1.12 ± 0.092 | Hoechst total cell count ratio (hAMSC donor 2 [2]): 1.39 ± 0.074 | transgenic luciferase activity (hAMSC donor 1 [3]): 1.82 ± 0.28 | transgenic luciferase activity (hAMSC donor 2 [4]): 0.833 ± 0.081 | transfection efficiency (hAMSC donor 1 [5]): 1.2 ± 0.25 | transfection efficiency (hAMSC donor 2 [6]): 0.85 ± 0.067

CN(CCCN1c2ccccc2CCc2ccccc21)CC(=O)c1ccc(Cl)cc1 [Lofepramine]
Hoechst total cell count ratio (hAMSC donor 1 [1]): 1.16 ± 0.21 | Hoechst total cell count ratio (hAMSC donor 2 [2]): 0.819 ± 0.057 | transgenic luciferase activity (hAMSC donor 1 [3]): 0.719 ± 0.23 | transgenic luciferase activity (hAMSC donor 2 [4]): 1.02 ± 0.092 | transfection efficiency (hAMSC donor 1 [5]): 0.877 ± 0.21 | transfection efficiency (hAMSC donor 2 [6]): 0.943 ± 0.11

COc1cc2nc(N(C)CCCNC(=O)C3CCCO3)nc(N)c2cc1OC (centres undefined) [Alfuzosin]
Hoechst total cell count ratio (hAMSC donor 1 [1]): 1.46 ± 0.12 | Hoechst total cell count ratio (hAMSC donor 2 [2]): 1.53 ± 0.12 | transgenic luciferase activity (hAMSC donor 1 [3]): 0.682 ± 0.38 | transgenic luciferase activity (hAMSC donor 2 [4]): 0.776 ± 0.16 | transfection efficiency (hAMSC donor 1 [5]): 1.22 ± 0.29 | transfection efficiency (hAMSC donor 2 [6]): 0.717 ± 0.083

CO[C@H]1O[C@@H]2O[C@@]3(C)CC[C@H]4[C@H](C)CC[C@@H]([C@H]1C)[C@@]24OO3 [Artemether]
Hoechst total cell count ratio (hAMSC donor 1 [1]): 1.97 ± 0.4 | Hoechst total cell count ratio (hAMSC donor 2 [2]): 1.09 ± 0.026 | transgenic luciferase activity (hAMSC donor 1 [3]): 0.659 ± 0.021 | transgenic luciferase activity (hAMSC donor 2 [4]): 1 ± 0.25 | transfection efficiency (hAMSC donor 1 [5]): 1.09 ± 0.51 | transfection efficiency (hAMSC donor 2 [6]): 0.634 ± 0.068

CN(C)c1nc(N(C)C)nc(N(C)C)n1 [Altretamine]
Hoechst total cell count ratio (hAMSC donor 1 [1]): 1.11 ± 0.18 | Hoechst total cell count ratio (hAMSC donor 2 [2]): 1.55 ± 0.2 | transgenic luciferase activity (hAMSC donor 1 [3]): 2.01 ± 0.59 | transgenic luciferase activity (hAMSC donor 2 [4]): 0.621 ± 0.056 | transfection efficiency (hAMSC donor 1 [5]): 0.917 ± 0.09 | transfection efficiency (hAMSC donor 2 [6]): 0.957 ± 0.14

CCc1ccc(CCOc2ccc(CC3SC(=O)NC3=O)cc2)nc1 (centres undefined) [Pioglitazone hydrochloride]
Hoechst total cell count ratio (hAMSC donor 1 [1]): 3.03 ± 0.13 | Hoechst total cell count ratio (hAMSC donor 2 [2]): 1.12 ± 0.11 | transgenic luciferase activity (hAMSC donor 1 [3]): 0.531 ± 0.15 | transgenic luciferase activity (hAMSC donor 2 [4]): 0.817 ± 0.58 | transfection efficiency (hAMSC donor 1 [5]): 2.04 ± 0.054 | transfection efficiency (hAMSC donor 2 [6]): 2.65 ± 0.41

CCC1=C[C@@H]2CN(C1)Cc1c([nH]c3ccccc13)[C@@](C(=O)OC)(c1cc3c(cc1OC)N(C)[C@H]1[C@@](O)(C(=O)OC)[C@H](OC(C)=O)[C@]4(CC)C=CCN5CC[C@]31[C@@H]54)C2 [Vinorelbine tartrate]
Hoechst total cell count ratio (hAMSC donor 1 [1]): 1.3 ± 0.042 | Hoechst total cell count ratio (hAMSC donor 2 [2]): 0.421 ± 0.021 | transgenic luciferase activity (hAMSC donor 1 [3]): 0.354 ± 0.13 | transgenic luciferase activity (hAMSC donor 2 [4]): 0.473 ± 0.17 | transfection efficiency (hAMSC donor 1 [5]): 0.403 ± 0.03 | transfection efficiency (hAMSC donor 2 [6]): 0.433 ± 0.088

COCCCC/C(=N\OCCN)c1ccc(C(F)(F)F)cc1 [Fluvoxamine maleate]
Hoechst total cell count ratio (hAMSC donor 1 [1]): 0.927 ± 0.15 | Hoechst total cell count ratio (hAMSC donor 2 [2]): 0.738 ± 0.027 | transgenic luciferase activity (hAMSC donor 1 [3]): 2.11 ± 0.57 | transgenic luciferase activity (hAMSC donor 2 [4]): 1.34 ± 0.56 | transfection efficiency (hAMSC donor 1 [5]): 0.914 ± 0.24 | transfection efficiency (hAMSC donor 2 [6]): 1.02 ± 0.14

CCC(=O)NS(=O)(=O)c1ccc(-c2c(-c3ccccc3)noc2C)cc1 [Parecoxib sodium]
Hoechst total cell count ratio (hAMSC donor 1 [1]): 0.858 ± 0.12 | Hoechst total cell count ratio (hAMSC donor 2 [2]): 0.556 ± 0.096 | transgenic luciferase activity (hAMSC donor 1 [3]): 0.573 ± 0.12 | transgenic luciferase activity (hAMSC donor 2 [4]): 1.44 ± 0.45 | transfection efficiency (hAMSC donor 1 [5]): 1.52 ± 0.28 | transfection efficiency (hAMSC donor 2 [6]): 1.87 ± 0.13

O=C(O)CCCc1ccccc1 [4-Phenylbutyric acid]
Hoechst total cell count ratio (hAMSC donor 1 [1]): 1.2 ± 0.08 | Hoechst total cell count ratio (hAMSC donor 2 [2]): 0.813 ± 0.059 | transgenic luciferase activity (hAMSC donor 1 [3]): 0.558 ± 0.32 | transgenic luciferase activity (hAMSC donor 2 [4]): 1.1 ± 0.47 | transfection efficiency (hAMSC donor 1 [5]): 0.987 ± 0.097 | transfection efficiency (hAMSC donor 2 [6]): 1 ± 0.098
